The values that follow come from the supplement of paper PMC11417369.

Some of the results follow.

The test relates to PfHDP1 homeodomain (GST-tagged). Briefly: gcPBM binding intensity (ln(normalized median fluorescence intensity)); higher = stronger DNA binding. In a few lines: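 The highest Masliner-normalised natural-log median intensity across replicate spots of either probe orientation is reported as binding intensity. GST-tagged P. falciparum DNA-binding domains expressed in E. coli were applied for 1 h to an Agilent 4 × 180k array of primer-extended double-stranded 36-bp intergenic genomic probes plus negative controls, and bound protein was detected with Alexa488 anti-GST antibody and scanned at 488 nm.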
As for “TAATATGACATAAGGGGTACTATATATATATATATT [XGTACX_site386]”, the “gcPBM binding intensity (ln)” value worked out at 6.68. For the sequence “AAACATTTACTATATTGTACTTAAGATCTTATCGTA [XGTACX_site3919]”, the “gcPBM binding intensity (ln)” value was determined as 6.2. Consider “TATTTTAACATGTTTTCAAAAATAAAACATATAAAT [CACACA_negctrl_site1598]”, for which the “gcPBM binding intensity (ln)” value is 6.03. Then “ATAATAAGCAGACACACACACACAAAAAAAAAAAAA [CACACA_site6477]”, with 6.46. Then “ATATAAATTTAATACACACCCAAAAAAAAAAAAAAA [CACACA_site3750]”, with 6.31; and “TAAATAAATACATACACACACATACAGATATATATA [CACACA_site5690]”, with 6.89. As to “TATGCTTTGATGAAGACACACATATAGAAGCGTATT [CACACA_site1925]”, the “gcPBM binding intensity (ln)” value turned out to be 6.21.

For the sequence “CGCCCACAGATATATACACACATATATAAATAAATA [CACACA_site6877]”, the “gcPBM binding intensity (ln)” value was 7.03. With “TACTTTTATAAAAATTGTACAAAAAAAAAAAAAAAA [XGTACX_site2266]” the figure was 6.37.

“TATGTTATAAAATATATATTATAATATGTATATATA [XGTACX_negctrl_site233]”: the “gcPBM binding intensity (ln)” value worked out at 6.26.

On to “AAAACTATTTCTTTCAGTACATATTTGGACTTATAT [XGTACX_site4977]”, for which the “gcPBM binding intensity (ln)” value was 6.12. Consider “AAACGATTAATGTGTACACACATAGTTATAAACATA [CACACA_site7073]”, for which the “gcPBM binding intensity (ln)” value is 6.67.

As for TTACACATGTATTTGGTGCATGTTGTTAACAAAATA, the “gcPBM binding intensity (ln)” value was determined as 9.83.

Regarding “ATTAAAACACAATATTCACACATGTATATTATATAT [CACACA_site5191]”, the “gcPBM binding intensity (ln)” value came to 6.61. For “TTAACATACACTCTAGTGCATATATATAACAAAATA [GTGCAC_site9724]”, the “gcPBM binding intensity (ln)” value is 9.09.

Consider “ATCATATTTATATTGGTGCATTATGCATGAAATTTA [GTGCAC_site9571]”, for which the “gcPBM binding intensity (ln)” value came out at 10.6. As to “AATTTAAATCTTCAAAGTACTAAAAAAAAAAATAAT [XGTACX_site8566]”, the “gcPBM binding intensity (ln)” value stood at 6.62. With “TTTTTTAAATGTCATTGTACATAATTCAATATATAA [XGTACX_site5]” the figure was 6.62.

For the sequence “TGACTTTTTTTATGTTGTACTTATTATAAAAAAAAT [XGTACX_site7736]”, the “gcPBM binding intensity (ln)” value stood at 6.99. For “AGCTAATATATCTTATATTCATATAAAAAAATATAT [CACACA_negctrl_site1786]”, the “gcPBM binding intensity (ln)” value was 6.26. On to “TTATAAAATATTTTTTGTACACATAATAGTAAGACT [XGTACX_site933]”, for which the “gcPBM binding intensity (ln)” value turned out to be 6.64. Regarding “CACCCACACCAACACACACACATATATAATATATAT [CACACA_site595]”, the “gcPBM binding intensity (ln)” value was 7.43.

On to “CCATAATATTATAGACGTACGAATATATATAAAAGA [XGTACX_site7295]”, for which the “gcPBM binding intensity (ln)” value amounted to 7.24. On to “GATTATTTTATAAGTACACACATTTATCTATAATAA [CACACA_site7256]”, for which the “gcPBM binding intensity (ln)” value was determined as 6.39.

As to “AATACATGCTTATTTTAACACACAAATGGTAGTAAT [CACACA_site8154]”, the “gcPBM binding intensity (ln)” value was 6.41.

Consider “AACCATGTTAACAACGCATGTATATCTATGGGTTTA [TGCATGCA_site419]”, for which the “gcPBM binding intensity (ln)” value was determined as 6.08. Then “CTTATATTTAGACACACACACAATAAAATGAAAAAA [CACACA_site1031]”, with 7.11; and “GATTAATACACATTCTTCCGACATAATAAGAAAAAG [GTGCAC_negctrl_site7]”, with 6.77. With “TTTTTTTTTTTTTTATGTACTAAAAAATGAAAAATA [XGTACX_site6812]” the figure was 6.33; with “AAATACTTAACATTGGTGCATATTTGTAAAATTATT [GTGCAC_site9515]”, 10.2. With TTATTTATTTATTGGGTGCACTTGATTTAAATATGC the figure was 9.24. Regarding “AAAAAAAAAAAAAAAACACACACATATATATAATAT [CACACA_site9038]”, the “gcPBM binding intensity (ln)” value was found to be 6.63. Then “TTTTGGCTTCTAATATTATACAAAATGGTAAGGAAA [TGCATGCA_negctrl_site169]”, with 6.55; and “ATGCAATAATAATATTGTACGCATATATTTTTTACT [XGTACX_site3384]”, with 6.21.

Turning to “AGAATACAAAATTGCACACATATTGTGAAAATGTTA [CACACA_site4005]”, the “gcPBM binding intensity (ln)” value was 10. With “ATTATAATAATGTGATGTACATTAATTGTCTTCCTA [XGTACX_site5404]” the figure was 6.5; with “AATACATCATTAAAATGTACATATATATATACATTA [XGTACX_site132]”, 6.22; with “GAAATAAGGGTTATTTCACACATTGCATGTATTTTC [CACACA_site5752]”, 6.3. In the case of “ATATATATTAATTTTGTGCACAAATGGAAATGTTTG [GTGCAC_site9971]”, the “gcPBM binding intensity (ln)” value was determined as 10.9. With “TGTGTTATATATAAAGAAAAAAAAAAAAAATATATA [CACACA_negctrl_site567]” the figure was 6.39; with “AAAAATTTAATTATTTGTACATAAAATACATTTCTG [XGTACX_site791]”, 6.18; with “TATTCCTATATAAAGACACACATATGTAACTACGAT [CACACA_site4139]”, 6.77. Then “TATAGATAACAAAAGTGTACATGTTGTATACACATG [XGTACX_site3471]”, with 6.82. Take “TATATATATAAACACACACACACACCCAAGCGTAGC [CACACA_site4210]”: the “gcPBM binding intensity (ln)” value is 7.61.

Consider “AACAACTATTACTGCACACATTCTTACACTATATAA [CACACA_site654]”, for which the “gcPBM binding intensity (ln)” value was found to be 9.28. Consider “TGTACAAATTATACTTCGAACGAAGGGCATACATAT [XGTACX_negctrl_site37]”, for which the “gcPBM binding intensity (ln)” value was found to be 6.64. Take “TATTTGTGTATTTTTACACACATTAATATATTTATA [CACACA_site7562]”: the “gcPBM binding intensity (ln)” value stood at 6.41. With “TATATATATATTATATGTACACATTTGTGAATTATT [XGTACX_site5848]” the figure was 8.34; with “AGGAGACTTAAAAAAAGTACAAAAAAAAAAAAAAGC [XGTACX_site1576]”, 6.38; with “ACAGAAAAAAAACACACACACATAATATACATACAT [CACACA_site1932]”, 6.86. With “TATACATATATAAATGCATGTTGATATTAATAGTTA [TGCATGCA_site639]”, the “gcPBM binding intensity (ln)” value was 6.53. As for “TATTTTTTTTTCTTTTTATATATAATAATCTTCATT [GTGCAC_negctrl_site80]”, the “gcPBM binding intensity (ln)” value worked out at 6.62. With “CGTTAAAGGGAATGTATACACACGTTTCTCTATGTT [CACACA_site1198]” the figure was 6.65; with “GTATATATGTATATATGTACATATATACATTTTGTT [XGTACX_site7320]”, 6.85. Then “TATATATTTAACAATCGTACATATTTACAAATATAA [XGTACX_site2131]”, with 6.31; and “TTATAACAACTGGAATGATTAACAATAAATATTAAA [CACACA_negctrl_site1723]”, with 6.09; and “TTAAATAATATTAAATGTACATATTATTATGATATA [XGTACX_site6189]”, with 6.13. With “ATGTTTGTCTATAGCTGTACCTATTTATAAAACGTA [XGTACX_site7157]” the figure was 6.67; with “TCATATTATAATGTGAGTACATATAATAAATAAGTT [XGTACX_site2470]”, 6.48; with “GTAAAAATTTTAAATACATGCAAGCGATTAATATGA [TGCATGCA_site80]”, 6.8. As to “TTAATATGATATATATATATATATATATATATATAT [CACACA_negctrl_site683]”, the “gcPBM binding intensity (ln)” value amounted to 9.37. On to “ATTTAGAAAAATAAAACACACATATAGATGTAAATA [CACACA_site7853]”, for which the “gcPBM binding intensity (ln)” value was 6.38.

Take “ATATTTCTGTCAAGCACACATAATATTAAAATATGT [CACACA_site4330]”: the “gcPBM binding intensity (ln)” value came to 6.43. With “TTTTATACATATTTTACACACTAAAATATACATATA [CACACA_site324]” the figure was 6.72.

In the case of “GAAGTATTTATTTATGCATGCAAATATACAAAAAAA [TGCATGCA_site975]”, the “gcPBM binding intensity (ln)” value turned out to be 6.85. Take “ACATATATTTAAAAATGTACTTACATATATTTTTTA [XGTACX_site6050]”: the “gcPBM binding intensity (ln)” value came out at 5.85. As to “ATAAAATAAATATTTTGTTATTTATTTAATCTAATA [XGTACX_negctrl_site404]”, the “gcPBM binding intensity (ln)” value turned out to be 5.98. As for “TTTTTTTTTTCTGAAAGTACTAATTTCCTGGAGGAA [XGTACX_site759]”, the “gcPBM binding intensity (ln)” value stood at 5.78.

As for TTATTATTATTACTAGTGCATTAATTATATATGTAA, the “gcPBM binding intensity (ln)” value was determined as 9.02. Take “TAAATATTTTTAGATGCATGCAATAATTACCCAAAG [TGCATGCA_site636]”: the “gcPBM binding intensity (ln)” value came out at 7. On to “TTATGTTGTAAATGCACACATACATAAACTCAGTTT [CACACA_site5639]”, for which the “gcPBM binding intensity (ln)” value is 10.5. Then “ACCTCATAATATTTAACACACAAAATTAAATGTATG [CACACA_site6898]”, with 6.52; and “CCTGTAAATAAATATAAATACATATTTCTAATATAT [GTGCAC_negctrl_site21]”, with 6.52; and “AGGAGGTCAGTTCACAGTACCCAGGAAATCTACGGA [XGTACX_site2552]”, with 5.92. With “AAAAATAAAATAAAGAAGGAAAATAAAAAAATAAGG [CACACA_negctrl_site1811]” the figure was 6.87; with “AAACATAAGAGACACACACACATATATAAATAAATA [CACACA_site7674]”, 6.75; with “AATTTCATAAATATAACTGAGAATAAATAAACAAAG [GTGCAC_negctrl_site146]”, 6.69. With “TGAACACACGAGCACACACACACATCTATATTTATA [CACACA_site6607]” the figure was 7.6; with “TGGAATAATACGCGTACACACATATATATATTAATA [CACACA_site131]”, 6.98. As for “AGGTATCAAAAATATGCATGCAATATTTTATGTAAT [TGCATGCA_site1055]”, the “gcPBM binding intensity (ln)” value worked out at 6.69. For “ATATAAAAATGTGTATGTACACACTTTATTTTTAAT [XGTACX_site5272]”, the “gcPBM binding intensity (ln)” value was determined as 6.46.

For the sequence “AAATTACAAATACAAACACACAAATGTTTTTCATTC [CACACA_site3552]”, the “gcPBM binding intensity (ln)” value is 6.27. Take “TTTTTCTATAAAAAATGTACATATTTTATGAAGGAA [XGTACX_site821]”: the “gcPBM binding intensity (ln)” value was 6.5. With “TTAAAAAACCTTAGATGTACAGTTATATATAAAATA [XGTACX_site6688]” the figure was 6.37; with “ATCCTTTATTTTTTTTGTACATAAAAATAACTCGAG [XGTACX_site3885]”, 6.94.

On to “CACCTTATAAATACTGCACACATAAAATATATATTA [CACACA_site8908]”, for which the “gcPBM binding intensity (ln)” value worked out at 8.76. Then “ACATATAAATATATTACACACACACTAAAAAAATAA [CACACA_site6209]”, with 7.01; and “CTTATCAAAAAAAAAGCATGCCACAGGCAAAAGGTA [TGCATGCA_site574]”, with 6.39; and “ATATATATATATATATGTACATATATACATATACAT [XGTACX_site2350]”, with 9.29.
